Experimental data from the supplement of paper PMC10369915.
Some of the results follow. No stated cut-off is given here; in the data, active = 3.2 or more and inactive = the rest. Only a few entries rise above the background.

B1: IGSF22_Y501_S503I_YF (peptide)
chain: GDPTEYFITAI
B2: IDS_Y225_Y225D (peptide)
chain: FLAVGDHKPHI
B3: IDS_Y225_P228T (peptide)
chain: FLAVGYHKTHI
B4: INPPL1_Y663_YF (peptide)
chain: PPTFRYERGSR
B5: INPPL1_Y663_P659S_YF (peptide)
chain: PSTFRYERGSR
B6: INPPL1_Y986_N982S_YF (peptide)
chain: FSNPAYFVLEG
B7: HSP90AB1_Y512 (peptide)
chain: GFEVVYMTEPI
B8: IL3RA_Y328_V323L (peptide)
chain: LICRRYLVMQR
B9: IGF2R_Y2024 (peptide)
chain: HNGVSYYINLC
B10: IDH1_Y135_R132G_YF (peptide)
chain: IGGHAYGDQFR
B11: HYDIN_Y4610 (peptide)
chain: KNILCYIQGGS
B12: IARS2_Y231_YF (peptide)
chain: TFFQMYDKGLV
B13: INO80_Y1104 (peptide)
chain: DSGKLYALDVL
B14: HSD17B4_Y602 (peptide)
chain: VISNAYVDLAP
B15: IL2RB_Y387_D391E_YF (peptide)
chain: FTFDPYSEEEP
B16: IDS_Y497_W502S_YF (peptide)
chain: IRTIDYRFTVS
B17: HSPA4L_Y600_I601T (peptide)
chain: DLLNSYTENEG
B18: INO80_Y1104_V1108G (peptide)
chain: DSGKLYALDGL
B19: INPPL1_Y987_N982S_YF (peptide)
chain: SNPAFYVLEGV
B20: IGF2R_Y2024_YF (peptide)
chain: HNGVSYFINLC
B21: HSPB1_Y133_R136W (peptide)
chain: QDEHGYISWCF
B22: IDH1_Y135_R132G (peptide)
chain: IGGHAYGDQYR
B23: IL4R_Y575_Q576R (peptide)
chain: APTSGYREFVH
B24: IDH3B_Y171_Q166H (peptide)
chain: HTEGEYSSLEH
B25: INPPL1_Y986_N982S (peptide)
chain: FSNPAYYVLEG
B26: IDH1_Y135 (peptide)
chain: IGRHAYGDQYR
B27: INPPL1_Y661_P659S (peptide)
chain: SFPSTYRYERG
B28: IGF1R_Y1346 (peptide)
chain: DERQPYAHMNG
B29: IL23R_Y178_T175N_YF (peptide)
chain: FLNSSYINIST
B30: IL17RB_Y447_I451T_YF (peptide)
chain: KFVVVYFRETD
B31: HTR1A_Y215 (peptide)
chain: LMLVLYGRIFR
B32: INA_Y87 (peptide)
chain: ARTNEYKIIRT
B33: IFNGR1_Y397 (peptide)
chain: IALNSYHSRNC
B34: IDS_Y234 (peptide)
chain: HIPFRYPKEFQ
B35: IGSF9_Y81_V82M (peptide)
chain: RIDPDYMGRVR
B36: IL2RB_Y387_YF (peptide)
chain: FTFDPYSEEDP
B37: HSPA4L_Y600 (peptide)
chain: DLLNSYIENEG

Molecular target: SHP2 C-SH2 domain E139D
Test: enrichment score (SH2-bound / input frequency) (ratio); bacterial display of known human phosphotyrosine sites (pTyr-Var adds point mutants) read by sequencing; higher = stronger binding; tyrosines were phosphorylated by kinases first
Conditions: peptide library: pTyr-Var
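Further: displayed peptides selected on beads carrying the immobilized SH2 domain, with library peptides lacking any tyrosine serving as negative controls.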

Enrichment score, active:
B3 3.26
B30 4.11

Enrichment score, inactive:
B1 0.516
B2 1.2
B4 0.249
B5 0.409
B6 1.19
B7 0.895
B8 0.277
B9 0.899
B10 0.855
B11 0.849
B12 1.41
B13 0.729
B14 0.938
B15 0.912
B16 1.84
B17 0.597
B18 0.694
B19 0.933
B20 0.784
B21 0.557
B22 0.669
B23 0.811
B24 0.387
B25 1.15
B26 0.966
B27 0.74
B28 0.597
B29 2.47
B31 1.3
B32 0.692
B33 0.928
B34 1.34
B35 0.732
B36 0.855
B37 1.06

Molecular target: SHP2 C-SH2 domain wild-type
Test: as above
Conditions: peptide library: pTyr-Var

Enrichment score, inactive:
B1 0.616
B2 1.38
B3 3.17
B4 0.271
B5 0.319
B6 1.7
B7 0.662
B8 0.25
B9 1.4
B10 0.865
B11 1.19
B12 1.33
B13 0.657
B14 1.1
B15 0.781
B16 1.66
B17 0.467
B18 0.825
B19 0.816
B20 0.936
B21 0.793
B22 0.555
B23 0.555
B24 0.394
B25 1.18
B26 0.909
B27 0.678
B28 0.581
B29 2.88
B30 2.96
B31 1.23
B32 0.688
B33 1.22
B34 1.6
B35 0.853
B36 0.833
B37 0.908

Molecular target: SHP2 N-SH2 domain L43F
Test: as above
Conditions: peptide library: pTyr-Var

Enrichment score, active:
B30 3.36

Enrichment score, inactive:
B1 0.387
B2 1.24
B3 2.3
B4 0.219
B5 0.337
B6 0.989
B7 0.669
B8 0.406
B9 0.728
B10 0.68
B11 0.824
B12 1.01
B13 0.706
B14 1.01
B15 0.795
B16 1.94
B17 0.655
B18 0.736
B19 0.938
B20 0.828
B21 0.694
B22 0.704
B23 0.728
B24 0.359
B25 1.06
B26 0.836
B27 0.69
B28 0.581
B29 3.07
B31 1.32
B32 0.527
B33 1.18
B34 1.55
B35 0.605
B36 0.889
B37 1.15

Molecular target: SHP2 N-SH2 domain T42A
Test: as above
Conditions: peptide library: pTyr-Var

Enrichment score, active:
B14 3.64
B29 9.47

Enrichment score, inactive:
B1 0.45
B2 1.13
B3 2.04
B4 0.226
B5 0.403
B6 1.15
B7 0.893
B8 0.429
B9 0.535
B10 0.795
B11 0.62
B12 1.08
B13 0.696
B15 0.915
B16 1.71
B17 0.516
B18 0.719
B19 0.759
B20 0.819
B21 0.605
B22 0.525
B23 0.562
B24 0.31
B25 0.88
B26 0.716
B27 0.589
B28 0.569
B30 3
B31 1.02
B32 0.459
B33 1.08
B34 1.4
B35 0.495
B36 0.826
B37 0.859

Molecular target: SHP2 N-SH2 domain T52S
Test: as above
Conditions: peptide library: pTyr-Var

Enrichment score, active:
B30 3.68

Enrichment score, inactive:
B1 0.601
B2 1.22
B3 2.89
B4 0.237
B5 0.371
B6 1.1
B7 0.709
B8 0.284
B9 0.464
B10 0.599
B11 0.732
B12 1.27
B13 0.675
B14 1.04
B15 0.914
B16 1.89
B17 0.549
B18 0.87
B19 0.74
B20 0.524
B21 0.657
B22 0.729
B23 0.687
B24 0.306
B25 1.22
B26 0.897
B27 0.773
B28 0.551
B29 2.89
B31 1.47
B32 0.546
B33 0.845
B34 1.58
B35 0.837
B36 0.832
B37 0.79

Molecular target: SHP2 N-SH2 domain wild-type
Test: as above
Conditions: peptide library: pTyr-Var

Enrichment score, inactive:
B1 0.69
B2 1.12
B3 2.7
B4 0.201
B5 0.405
B6 1.13
B7 0.703
B8 0.379
B9 1.62
B10 0.99
B11 0.998
B12 1.01
B13 0.829
B14 0.869
B15 0.891
B16 1.6
B17 0.546
B18 0.818
B19 0.827
B20 1.18
B21 1.4
B22 0.719
B23 0.69
B24 0.397
B25 1.09
B26 0.953
B27 0.582
B28 0.804
B29 2.64
B30 2.64
B31 0.855
B32 0.508
B33 1.06
B34 0.752
B35 0.732
B36 0.852
B37 1.08
